# Measured values from the supplement of paper PMC8728848.
# The list shows a part of the results.
# How the values were obtained:
# Experiment in all cases: glycan array binding signal (z-score within array); higher = stronger binding
# Details in all cases: glycan notation: IUPAC condensed, linker removed
# [1] = target: Man(a1-2)Man(a1-3)[Man(a1-2)Man(a1-6)]Man(a1-6)[Man(a1-2)Man(a1-2)Man(a1-3)]Man
# Outline: (§1)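 Glycan array data were curated from 3228 arrays in the Consortium for Functional Glycomics database and kept only where the protein sequence was available. Glycan names were converted to IUPAC-condensed notation, and columns mapping to the same glycan were averaged. The binding signal is a within-array Z-score, averaged across arrays of the same protein sequence at different concentrations or buffers and across linkers. Negative Z-scores can be read as non-binding.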
# [2] = target: Man(a1-2)Man(a1-3)[Man(a1-2)Man(a1-6)]Man(a1-6)[Man(a1-2)Man(a1-2)Man(a1-3)]Man(b1-4)GlcNAc(b1-4)GlcNAc
# Outline: as §1
# [3] = target: Man(a1-2)Man(a1-3)[Man(a1-6)]Man(a1-6)[Man(a1-2)Man(a1-3)]Man(b1-4)GlcNAc(b1-4)GlcNAc
# Outline: as §1
# [4] = target: Man(a1-2)Man(a1-6)[Man(a1-3)]Man(a1-6)[Man(a1-2)Man(a1-2)Man(a1-3)]Man
# Outline: as §1
# [5] = target: Man(a1-2)Man(a1-6)[Man(a1-3)]Man(a1-6)[Man(a1-2)Man(a1-2)Man(a1-3)]Man(b1-4)GlcNAc(b1-4)GlcNAc
# Outline: as §1
# [6] = target: Man(a1-3)[Man(a1-6)]Man
# Outline: as §1
# [7] = target: Man(a1-3)[Man(a1-6)]Man(a1-6)[Man(a1-2)Man(a1-3)]Man(b1-4)GlcNAc(b1-4)GlcNAc
# Outline: as §1
# [8] = target: Man(a1-3)[Man(a1-6)]Man(a1-6)[Man(a1-3)]Man
# Outline: as §1
# [9] = target: Man(a1-3)[Man(a1-6)]Man(a1-6)[Man(a1-3)]Man(b1-4)GlcNAc(b1-4)GlcNAc
# Outline: as §1
# [10] = target: Man(a1-3)[Man(a1-6)]Man(b1-4)GlcNAc(b1-4)GlcNAc
# Outline: as §1
# [11] = target: Man(a1-3)[Man(a1-6)]Man(b1-4)GlcNAc(b1-4)[Fuc(a1-6)]GlcNAc
# Outline: as §1
# [12] = target: Man(a1-6)Man
# Outline: as §1
# [13] = target: Man(b1-4)GlcNAc
# Outline: as §1
# [14] = target: MurNAc(b1-4)GlcNAc
# Outline: as §1
# [15] = target: Neu5Ac(a2-3)Gal
# Outline: as §1
# [16] = target: Neu5Ac(a2-3)Gal(b1-3)GalNAc
# Outline: as §1
# [17] = target: Neu5Ac(a2-3)Gal(b1-3)GalNAc(b1-3)Gal(a1-4)Gal(b1-4)Glc
# Outline: as §1
# [18] = target: Neu5Ac(a2-3)Gal(b1-3)GalNAc(b1-4)[Neu5Ac(a2-3)]Gal(b1-4)Glc
# Outline: as §1
# [19] = target: Neu5Ac(a2-3)Gal(b1-3)GalNAc(b1-4)[Neu5Ac(a2-8)Neu5Ac(a2-3)]Gal(b1-4)Glc
# Outline: as §1
# [20] = target: Neu5Ac(a2-3)Gal(b1-3)GalNAc6S
# Outline: as §1
# [21] = target: Neu5Ac(a2-3)Gal(b1-3)GlcNAc
# Outline: as §1
# [22] = target: Neu5Ac(a2-3)Gal(b1-3)GlcNAc(b1-2)Man
# Outline: as §1
# [23] = target: Neu5Ac(a2-3)Gal(b1-3)GlcNAc(b1-2)Man(a1-3)[GlcNAc(b1-4)][Neu5Ac(a2-3)Gal(b1-3)GlcNAc(b1-2)Man(a1-6)]Man(b1-4)GlcNAc(b1-4)GlcNAc
# Outline: as §1
# [24] = target: Neu5Ac(a2-3)Gal(b1-3)GlcNAc(b1-2)Man(a1-3)[Neu5Ac(a2-3)Gal(b1-3)GlcNAc(b1-2)Man(a1-6)]Man(b1-4)GlcNAc(b1-4)GlcNAc
# Outline: as §1
# [25] = target: Neu5Ac(a2-3)Gal(b1-3)GlcNAc(b1-3)Gal(b1-3)GlcNAc
# Outline: as §1
# [26] = target: Neu5Ac(a2-3)Gal(b1-3)GlcNAc(b1-3)Gal(b1-4)GlcNAc
# Outline: as §1
# [27] = target: Neu5Ac(a2-3)Gal(b1-3)GlcNAc(b1-3)GalNAc
# Outline: as §1
# [28] = target: Neu5Ac(a2-3)Gal(b1-3)GlcNAc(b1-4)Gal(b1-4)Glc
# Outline: as §1
# [29] = target: Neu5Ac(a2-3)Gal(b1-3)GlcNAc(b1-6)GalNAc
# Outline: as §1
# [30] = target: Neu5Ac(a2-3)Gal(b1-3)GlcNAc6S
# Outline: as §1
# [31] = target: Neu5Ac(a2-3)Gal(b1-3)[Fuc(a1-4)]GlcNAc
# Outline: as §1
# [32] = target: Neu5Ac(a2-3)Gal(b1-3)[Fuc(a1-4)]GlcNAc(b1-3)Gal(b1-3)[Fuc(a1-4)]GlcNAc
# Outline: as §1
# [33] = target: Neu5Ac(a2-3)Gal(b1-3)[Fuc(a1-4)]GlcNAc(b1-3)Gal(b1-4)[Fuc(a1-3)]GlcNAc
# Outline: as §1
# [34] = target: Neu5Ac(a2-3)Gal(b1-3)[GlcNAc(b1-6)]GalNAc
# Outline: as §1
# [35] = target: Neu5Ac(a2-3)Gal(b1-3)[Neu5Ac(a2-6)]GalNAc
# Outline: as §1
# [36] = target: Neu5Ac(a2-3)Gal(b1-3)[Neu5Ac(a2-6)]GlcNAc(b1-3)[Fuc(a1-3)[Gal(b1-4)]GlcNAc(b1-6)]Gal(b1-4)Glc
# Outline: as §1
# [37] = target: Neu5Ac(a2-3)Gal(b1-3)]Neu5Ac(a2-3)Gal(b1-4)]GlcNAc
# Outline: as §1
binder,measurement,setting,value
PX9937D-bvu-500-26-500 (Bacteroides vulgatus) (protein) DPVSDITDLNYWKTPEQFDSFVFGLHSRFRSHSWNMFLLGEARSDVFGGIPFGGEATQGMERFPYNTLNAENPGISGFGDLYQNINQMNLFISRTLHTDVLTESARNYYLGQVYGLRAYYMYQLYRSWGDVVFTEEPSLGFEVGKLAKAATPAAEIFEQVKKDIESSLSYFGSDYTIKEKKSLWSKAATLMLKADVYLWSAHRDGGEGDARTAKNALVDIQNNISRSNLDLMDTYQGVFAYDNKGNKEIIFTIHNELFEYNLWNGNNDLFPQADYLGKFYNADGTLINTSVENNFGIMRLMVKLENFKKFLPGDTRRDVTLKDVYNKVENGKLELVGVYPHKYWGVMNGSTRVRCDDYPIYRYSDLLLMLAEAKVLLGEDPATEINRVRRRAFGDAYDASTVGFPNQEVDKRPADAVLQERLFEFMLEGKRWYDLRRFGDSYVLDYTPAEPARLLWPINQGALTNNPLLKQTVGY,glycan array binding signal (z-score),[1],-0.398
same,glycan array binding signal (z-score),[2],-0.504
same,glycan array binding signal (z-score),[3],-0.359
same,glycan array binding signal (z-score),[4],-0.503
same,glycan array binding signal (z-score),[5],-0.167
same,glycan array binding signal (z-score),[6],-0.391
same,glycan array binding signal (z-score),[7],0.269
same,glycan array binding signal (z-score),[8],0.317
same,glycan array binding signal (z-score),[9],-0.09
same,glycan array binding signal (z-score),[10],-0.209
same,glycan array binding signal (z-score),[11],-0.415
same,glycan array binding signal (z-score),[12],-0.097
same,glycan array binding signal (z-score),[13],-0.517
same,glycan array binding signal (z-score),[14],-0.509
same,glycan array binding signal (z-score),[15],-0.084
same,glycan array binding signal (z-score),[16],-0.219
same,glycan array binding signal (z-score),[17],0.014
same,glycan array binding signal (z-score),[18],-0.308
same,glycan array binding signal (z-score),[19],-0.054
same,glycan array binding signal (z-score),[20],-0.17
same,glycan array binding signal (z-score),[21],-0.426
same,glycan array binding signal (z-score),[22],0.155
same,glycan array binding signal (z-score),[23],-0.127
same,glycan array binding signal (z-score),[24],0.349
same,glycan array binding signal (z-score),[25],-0.452
same,glycan array binding signal (z-score),[26],-0.047
same,glycan array binding signal (z-score),[27],-0.295
same,glycan array binding signal (z-score),[28],0.237
same,glycan array binding signal (z-score),[29],-0.392
same,glycan array binding signal (z-score),[30],-0.159
same,glycan array binding signal (z-score),[31],-0.323
same,glycan array binding signal (z-score),[32],-0.345
same,glycan array binding signal (z-score),[33],-0.36
same,glycan array binding signal (z-score),[34],-0.595
same,glycan array binding signal (z-score),[35],-0.336
same,glycan array binding signal (z-score),[36],-0.318
same,glycan array binding signal (z-score),[37],-0.42
